{"source": "PubChem BioAssay AID886", "about": "(National Center for Advancing Translational Sciences (NCATS), 2007)", "note": "Several values for one entry are separate records, joined by “and”; a condition that tells them apart may be missing. Equal entries are not always repeated. Among all 73,000 compounds or so, about 2,500 (3.4%) were called active. This list was built around the results that the source calls inconclusive (neither active nor inactive); the mix of calls is not that of the screen. The call rests on the fitted dose curve; in most records, active means well fitted inhibition curve with a large enough effect; inconclusive means small, poorly fitted or top-dose-only effect; inactive means no such curve, though single readings can be large or run the other way. Where the call is inconclusive, the potency comes from a doubtful curve fit. On the % scale 0 is the no-effect control and ±100 the full control effect; potency means the concentration at half of the fitted maximal effect; tags describe the fitted curve by direction and shape.", "data": [{"target": "3-hydroxyacyl-CoA dehydrogenase type-2 (Homo sapiens) (UniProt Q99714)", "test": "qHTS Assay for Inhibitors of HADH2 (Hydroxyacyl-Coenzyme A Dehydrogenase, Type II); further: nearly all actives have a fitted effect of over 60% in size", "settings": "recombinant HADH2, NADH fluorescence, beta-hydroxybutyryl-CoA; activity change, negative = inhibition: at 57.1 µM (top of the series)", "summary_of_the_method": "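His-tagged recombinant enzyme from E. coli, 20 nM, preincubated 15 min RT with compound; reaction started with 1 mM NAD+ and 90 uM beta-hydroxybutyryl-CoA in 100 mM Tris-HCl pH 9.0. NADH fluorescence (ex 360/em 450) read over 4 min; last-minus-first difference.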", "values": [{"smiles": "c1ccc(-c2nnc3sc(-c4ccncc4)nn23)cc1", "Potency": "inconclusive: 25.1 µM [inhibitor, partial curve]"}, {"smiles": "CCOC(=O)N1CCC(NC(=O)Cc2ccc(-n3c(=O)[nH]c4ccccc4c3=O)cc2)CC1", "activity change, negative = inhibition": "inactive: 8.3%"}, {"smiles": "C[C@@](N)(Cc1ccc(O)c(O)c1)C(=O)O", "Potency": "active: 1 µM and active: 316 nM and active: 100 nM"}, {"smiles": "O=C(O)CCN1C(=S)CSC1=S", "Potency": "inconclusive: 3.16 µM [inhibitor, partial curve]"}, {"smiles": "O=C(N1CCOCC1)N1CCN(c2nc(-c3ccccc3)cs2)CC1", "Potency": "inconclusive: 39.8 µM [inhibitor, single point]"}, {"smiles": "COc1nc(-c2ccccc2)cc(C(F)(F)F)n1", "Potency": "inconclusive: 39.8 µM [inhibitor, single point]"}, {"smiles": "CCn1c(=N)c(C(=O)NCCCOC)cc2c(=O)n3cccc(C)c3nc21", "Potency": "active: 3.98 µM"}, {"smiles": "C[C@H]1CC[C@H]2C(=O)N3[C@H](c4ccc(Br)cc4)[C@@H](C)CC[C@H]3C(=O)N2[C@@H]1c1ccc(Br)cc1", "activity change, negative = inhibition": "inactive: -3.21% [at 11.4 µM]"}, {"smiles": "O=C(O)c1cccc(NS(=O)(=O)c2ccc3nnn(O)c3c2)c1", "Potency": "inconclusive: 39.8 µM [inhibitor, single point]"}, {"smiles": "C=CCN1CCc2c(cc(O)c(O)c2Br)[C@H](c2ccccc2)C1", "Potency": "active: 0.794 µM"}, {"smiles": "COc1cc(-c2nc3cnccn3c2Nc2ccccc2)ccc1O", "Potency": "inconclusive: 10 µM [inhibitor, partial curve]"}, {"smiles": "O=c1c(O)c(-c2ccc(O)cc2)oc2cc(O)ccc12", "Potency": "inconclusive: 25.1 µM [inhibitor, partial curve]"}, {"smiles": "Cc1noc(NS(=O)(=O)c2ccc(N3Cc4ccccc4C3=O)cc2)c1C", "activity change, negative = inhibition": "inactive: -2.55%"}, {"smiles": "COc1cccc(-c2csc(N3CCN(Cc4ccccc4)CC3)n2)c1", "Potency": "inconclusive: 31.6 µM [inhibitor, single point]"}, {"smiles": "N#Cc1c(-c2ccco2)cc(-c2cccnc2)nc1N", "Potency": "inconclusive: 3.98 µM [inhibitor, single point]"}, {"smiles": "CCCCNc1ncnc2c1cnn2-c1ccc(Cl)cc1", "Potency": "inconclusive: 31.6 µM [inhibitor, single point]"}, {"smiles": "Cc1ccc(-c2cc(C)nc3ncnn23)cc1", "Potency": "inconclusive: 39.8 µM [inhibitor, single point]"}, {"smiles": "CN(C)S(=O)(=O)c1cccc(C(=O)C2=C3SC=C(c4ccccc4)N3CC2)c1", "Potency": "inconclusive: 25.1 µM [inhibitor, partial curve]"}, {"smiles": "Cc1cc(NC(=O)c2ccccc2NS(=O)(=O)c2c(C)c(C)cc(C)c2C)no1", "Potency": "active: 31.6 µM"}]}]}
